The text below walks through data of the supplement of paper PMC4967469.

Common to all, as to assay: Viability of human cancer cell lines after 72 h of drug (GDSC screen)
Compound in one experiment: CCc1cc(Nc2nccc(-c3c(-c4ccc(OC)c(C(=O)Nc5c(F)cccc5F)c4)nc4ccccn34)n2)c(OC)cc1N1CCC(N2CCN(S(C)(=O)=O)CC2)CC1 [GSK-1904529A]
To be noted: top dose 1.024 µM; top dose inferred. How it is done:
(§1)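 Human cancer cell lines in 384-well plates, medium with 10% serum, drug for 72 h over a 256-fold dose range (nine 2-fold or five 4-fold steps up to the top dose). Adherent lines were fixed and stained with the nucleic acid dye Syto60, suspension lines read with resazurin; signal relative to control wells, capped at 0 and 100%. One two-parameter sigmoid per drug and line, fitted in a mixed model over all curves with the slope shared within a line.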

Compound in a further experiment: Cn1cncc1[C@@](N)(c1ccc(Cl)cc1)c1ccc2c(c1)c(-c1cccc(Cl)c1)cc(=O)n2C [Tipifarnib]
To be noted: top dose 16 µM; top dose inferred. As to the method:
as §1

Compound in another experiment: COc1ccccc1S(=O)(=O)Nc1ccc2c(c1)CN(C)C(=O)N2 [PFI-1]
The settings on record: top dose 10 µM; top dose inferred. How it is done: as §1

Compound in a further experiment: CCN1CCN(Cc2ccc(NC(=O)c3ccc(C)c(Oc4ccnc5[nH]ccc45)c3)cc2C(F)(F)F)CC1 [NG-25]
To be noted: top dose 10.24 µM; top dose inferred. How it is done: as §1

By IC50 is meant the dose at which the fit gives 50% viability; a limit (>, <) means that the fit lies beyond the doses tested. For AUC the same curve is integrated over the 256-fold range of doses and scaled to a fraction: 1 means no effect, lower means more sensitive. The top dose, if marked as inferred, was derived from the fitted curves, not read from the paper.

Consider JHH-4 (liver, adherent), for which the AUC with GSK-1904529A worked out at 0.931; with Tipifarnib, 0.618; with PFI-1, 0.964; with NG-25, 0.814. The IC50 is above 1.02 µM with GSK-1904529A, 2.11 µM with Tipifarnib, above 10 µM with PFI-1 and 5.57 µM in the experiment with NG-25.

Take A673 (rhabdomyosarcoma, adherent): the AUC with GSK-1904529A is 0.989; in the experiment with Tipifarnib, 0.827; in the experiment with PFI-1, 0.916; with NG-25, 0.968. Moreover, the IC50 was above 1.02 µM with GSK-1904529A, 8.47 µM with Tipifarnib, above 10 µM with PFI-1 and above 10.2 µM with NG-25.

OVCAR-8 (ovary, adherent): the AUC with GSK-1904529A was found to be 0.989; in the experiment with Tipifarnib, 0.731; with PFI-1 it was 0.857; in the experiment with NG-25, 0.838. Moreover, the half-inhibitory concentration (IC50) was above 1.02 µM with GSK-1904529A, 4.17 µM with Tipifarnib, 6.82 µM with PFI-1 and 5.92 µM with NG-25.

Take HCC1395 (breast, adherent): the AUC with GSK-1904529A was 0.931; with Tipifarnib it was 0.774; with PFI-1, 0.937; with NG-25, 0.83. Also, the IC50 with GSK-1904529A was above 1.02 µM; with Tipifarnib it was 7.57 µM; with PFI-1 it was above 10 µM; with NG-25, 8.26 µM.

On to RCM-1 (large intestine, adherent), for which the AUC in the experiment with GSK-1904529A was determined as 0.982; in the experiment with Tipifarnib it was 0.909; with PFI-1, 0.911; with NG-25, 0.973. Moreover, the IC50 was above 1.02 µM with GSK-1904529A, above 16 µM with Tipifarnib, above 10 µM with PFI-1 and above 10.2 µM in the experiment with NG-25.

As for EW-7 (Ewing sarcoma, semi-adherent), the AUC is 0.986 in the experiment with GSK-1904529A, 0.859 with Tipifarnib, 0.981 in the experiment with PFI-1 and 0.68 with NG-25. The 50% inhibitory concentration (IC50) was above 1.02 µM with GSK-1904529A, 10.8 µM with Tipifarnib, above 10 µM with PFI-1 and 1.89 µM with NG-25.

EFO-21 (ovary, adherent): the AUC with GSK-1904529A was 0.969; with Tipifarnib it was 0.624; with PFI-1, 0.827; with NG-25, 0.886. For the same cell line, the IC50 in the experiment with GSK-1904529A is above 1.02 µM; with Tipifarnib, 2.56 µM; with PFI-1, above 10 µM; in the experiment with NG-25, above 10.2 µM.

Turning to HSC-4 (head and neck, adherent), the AUC with GSK-1904529A was 0.975; with Tipifarnib it was 0.807; in the experiment with PFI-1, 0.811; with NG-25, 0.926. Further, the IC50 is above 1.02 µM in the experiment with GSK-1904529A, 11.7 µM with Tipifarnib, 7.64 µM in the experiment with PFI-1 and above 10.2 µM in the experiment with NG-25.

As for KP-2 (pancreas, adherent), the AUC with GSK-1904529A was 0.985; with Tipifarnib, 0.372; with PFI-1, 0.956; in the experiment with NG-25 it was 0.977. The IC50 with GSK-1904529A was above 1.02 µM; with Tipifarnib, 0.431 µM; in the experiment with PFI-1, above 10 µM; with NG-25, above 10.2 µM.

As to H2804 (mesothelioma, adherent), the AUC is 0.983 with GSK-1904529A, 0.841 with Tipifarnib, 0.808 with PFI-1 and 0.965 with NG-25. Moreover, the IC50 with GSK-1904529A was above 1.02 µM; with Tipifarnib it was 12.8 µM; with PFI-1 it was 5.79 µM; with NG-25, above 10.2 µM.

Regarding Daoy (medulloblastoma, adherent), the AUC in the experiment with GSK-1904529A was 0.94; with Tipifarnib it was 0.132; with PFI-1, 0.858; with NG-25, 0.897. The IC50 in the experiment with GSK-1904529A is above 1.02 µM; in the experiment with Tipifarnib, 0.0813 µM; in the experiment with PFI-1, 7 µM; with NG-25, above 10.2 µM.

As to C-33-A (cervix, adherent), the AUC is 0.918 with GSK-1904529A, 0.649 in the experiment with Tipifarnib, 0.862 in the experiment with PFI-1 and 0.695 in the experiment with NG-25. Further, the half-inhibitory concentration (IC50) with GSK-1904529A was above 1.02 µM; in the experiment with Tipifarnib, 2.6 µM; in the experiment with PFI-1 it was 8.6 µM; in the experiment with NG-25, 2.25 µM.

On to “NCI-H522 (lung adenocarcinoma, adherent)”, for which the AUC with GSK-1904529A stood at 0.959; in the experiment with Tipifarnib it was 0.585; with PFI-1, 0.831; in the experiment with NG-25 it was 0.853. In addition, the IC50 in the experiment with GSK-1904529A was above 1.02 µM; with Tipifarnib, 1.78 µM; with PFI-1, 8.04 µM; in the experiment with NG-25, above 10.2 µM.

Turning to SW756 (cervix, adherent), the AUC with GSK-1904529A came to 0.973; with Tipifarnib, 0.803; in the experiment with PFI-1, 0.917; with NG-25, 0.967. In addition, the half-maximal inhibitory concentration (IC50) was above 1.02 µM in the experiment with GSK-1904529A, 9.79 µM with Tipifarnib, above 10 µM in the experiment with PFI-1 and above 10.2 µM with NG-25.

In the case of A2058 (melanoma, adherent), the AUC came to 0.99 with GSK-1904529A, 0.787 with Tipifarnib, 0.75 in the experiment with PFI-1 and 0.907 with NG-25. Also, the IC50 with GSK-1904529A is above 1.02 µM; in the experiment with Tipifarnib, 6.18 µM; with PFI-1, 2.95 µM; in the experiment with NG-25 it was above 10.2 µM.

With M059J (glioma, adherent), the AUC stood at 0.981 with GSK-1904529A, 0.897 with Tipifarnib, 0.837 in the experiment with PFI-1 and 0.779 with NG-25. In addition, the IC50 was above 1.02 µM with GSK-1904529A, above 16 µM with Tipifarnib, 7.54 µM with PFI-1 and 4.55 µM in the experiment with NG-25.
